# The other results are listed elsewhere or left out.
# B1: NKR-PIC (Mus musculus) (protein)
# chain: GTGQKPSREKCCVFIQENLNKTTDCSVNLECPQDWLLHRDKCFHVSQVSNTWEEGQADCGRKGATLLLIQDQEELRFLLDSIKEKYNSFWIGLRFTLPDMNWKWINGTTFNSDVLKITGVTENGSCASILGDKVTPESCASDNRWICQKELNHETPSNDSGT
# What was measured:
# Test in all cases: glycan array binding signal (z-score within array); higher = stronger binding
# Details in all cases: glycan notation: IUPAC condensed, linker removed
# [1] = target: Fuc(a1-3)[Gal3S(b1-4)]GlcNAc6S
# In short: (§1)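 The binding signal is a Z-score computed within each array. Data were drawn from 3228 arrays in the Consortium for Functional Glycomics database, restricted to those with a known protein sequence. Scores were averaged over arrays of the same protein sequence at different concentrations or buffers, and over linkers, and negative values can be taken as non-binding.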
# [2] = target: Fuc(a1-3)[GalNAc(b1-4)]GlcNAc
# In short: as §1
# [3] = target: Fuc(a1-3)[GalNAc(b1-4)]GlcNAc6S
# In short: as §1
# Fuc(a1-4)GlcNAc = target: Fuc(a1-4)GlcNAc
# In short: as §1
# Fuc(b1-3)GlcNAc = target: Fuc(b1-3)GlcNAc
# In short: as §1
# Gal(a1-2)Gal = target: Gal(a1-2)Gal
# In short: as §1
# Gal(a1-3)Gal = target: Gal(a1-3)Gal
# In short: as §1
# Gal(a1-3)Gal(b1-3)GlcNAc = target: Gal(a1-3)Gal(b1-3)GlcNAc
# In short: as §1
# [4] = target: Gal(a1-3)Gal(b1-3)GlcNAc(b1-2)Man
# In short: as §1
# [5] = target: Gal(a1-3)Gal(b1-3)GlcNAc(b1-2)Man(a1-3)[Gal(a1-3)Gal(b1-3)GlcNAc(b1-2)Man(a1-6)]Man(b1-4)GlcNAc(b1-4)GlcNAc
# In short: as §1
# [6] = target: Gal(a1-3)Gal(b1-3)GlcNAc(b1-3)GalNAc
# In short: as §1
# [7] = target: Gal(a1-3)Gal(b1-3)GlcNAc(b1-6)GalNAc
# In short: as §1
# [8] = target: Gal(a1-3)Gal(b1-3)[Fuc(a1-4)]GlcNAc(b1-2)Man(a1-3)[Gal(a1-3)Gal(b1-3)[Fuc(a1-4)]GlcNAc(b1-2)Man(a1-6)]Man(b1-4)GlcNAc(b1-4)GlcNAc
# In short: as §1
# Gal(a1-3)Gal(b1-4)Glc = target: Gal(a1-3)Gal(b1-4)Glc
# In short: as §1
# Gal(a1-3)Gal(b1-4)GlcNAc = target: Gal(a1-3)Gal(b1-4)GlcNAc
# In short: as §1
# [9] = target: Gal(a1-3)Gal(b1-4)GlcNAc(b1-2)Man
# In short: as §1
# [10] = target: Gal(a1-3)Gal(b1-4)GlcNAc(b1-2)Man(a1-3)[Gal(a1-3)Gal(b1-4)GlcNAc(b1-2)Man(a1-6)]Man(b1-4)GlcNAc(b1-4)GlcNAc
# In short: as §1
# [11] = target: Gal(a1-3)Gal(b1-4)GlcNAc(b1-3)GalNAc
# In short: as §1
# [12] = target: Gal(a1-3)Gal(b1-4)GlcNAc(b1-6)GalNAc
# In short: as §1
# [13] = target: Gal(a1-3)Gal(b1-4)[Fuc(a1-3)]GlcNAc
# In short: as §1
# [14] = target: Gal(a1-3)Gal(b1-4)[Fuc(a1-3)]GlcNAc(b1-2)Man(a1-3)[Gal(a1-3)Gal(b1-4)[Fuc(a1-3)]GlcNAc(b1-2)Man(a1-6)]Man(b1-4)GlcNAc(b1-4)GlcNAc
# In short: as §1
# Gal(a1-3)GalNAc = target: Gal(a1-3)GalNAc
# In short: as §1
# [15] = target: Gal(a1-3)[Gal(a1-4)]Gal(b1-4)GlcNAc
# In short: as §1
# [16] = target: Gal(a1-4)Gal(b1-3)GlcNAc(b1-2)Man(a1-3)[Gal(a1-4)Gal(b1-3)GlcNAc(b1-2)Man(a1-6)]Man(b1-4)GlcNAc(b1-4)GlcNAc
# In short: as §1
# Gal(a1-4)Gal(b1-4)Glc = target: Gal(a1-4)Gal(b1-4)Glc
# In short: as §1
# Gal(a1-4)Gal(b1-4)GlcNAc = target: Gal(a1-4)Gal(b1-4)GlcNAc
# In short: as §1
# [17] = target: Gal(a1-4)Gal(b1-4)GlcNAc(b1-2)Man(a1-3)[Gal(a1-4)Gal(b1-4)GlcNAc(b1-2)Man(a1-6)]Man(b1-4)GlcNAc(b1-4)GlcNAc
# In short: as §1
# [18] = target: Gal(a1-4)Gal(b1-4)GlcNAc(b1-3)Gal(b1-4)Glc
# In short: as §1
# Gal(a1-4)GlcNAc = target: Gal(a1-4)GlcNAc
# In short: as §1
# Gal(a1-6)Glc = target: Gal(a1-6)Glc
# In short: as §1
# Gal(b1-2)Gal = target: Gal(b1-2)Gal
# In short: as §1
# Gal(b1-3)Gal = target: Gal(b1-3)Gal
# In short: as §1
# Gal(b1-3)Gal(b1-4)GlcNAc = target: Gal(b1-3)Gal(b1-4)GlcNAc
# In short: as §1
# Gal(b1-3)GalNAc = target: Gal(b1-3)GalNAc
# In short: as §1
# [19] = target: Gal(b1-3)GalNAc(a1-3)[Fuc(a1-2)]Gal(b1-4)Glc
# In short: as §1
# [20] = target: Gal(b1-3)GalNAc(a1-3)[Fuc(a1-2)]Gal(b1-4)GlcNAc
# In short: as §1
# Gal(b1-3)GalNAc(b1-3)Gal = target: Gal(b1-3)GalNAc(b1-3)Gal
# In short: as §1
# [21] = target: Gal(b1-3)GalNAc(b1-3)Gal(a1-4)Gal(b1-4)Glc
# In short: as §1
# [22] = target: Gal(b1-3)GalNAc(b1-4)Gal(b1-4)Glc
# In short: as §1
# [23] = target: Gal(b1-3)GalNAc(b1-4)[Neu5Ac(a2-3)]Gal(b1-4)Glc
# In short: as §1
# Gal(b1-3)GlcNAc = target: Gal(b1-3)GlcNAc
# In short: as §1
# [24] = target: Gal(b1-3)GlcNAc(a1-3)Gal(b1-4)GlcNAc
# In short: as §1
# [25] = target: Gal(b1-3)GlcNAc(a1-6)Gal(b1-4)GlcNAc
# In short: as §1
# Gal(b1-3)GlcNAc(b1-2)Man = target: Gal(b1-3)GlcNAc(b1-2)Man
# In short: as §1
# [26] = target: Gal(b1-3)GlcNAc(b1-2)Man(a1-3)[Gal(b1-3)GlcNAc(b1-2)Man(a1-6)]Man(b1-4)GlcNAc(b1-4)GlcNAc
# In short: as §1
binder,measurement,setting,value
B1,glycan array binding signal (z-score),[1],-0.353
same,glycan array binding signal (z-score),[2],2.49
same,glycan array binding signal (z-score),[3],-0.075
same,glycan array binding signal (z-score),Fuc(a1-4)GlcNAc,-0.326
same,glycan array binding signal (z-score),Fuc(b1-3)GlcNAc,-0.305
same,glycan array binding signal (z-score),Gal(a1-2)Gal,-0.289
same,glycan array binding signal (z-score),Gal(a1-3)Gal,-0.422
same,glycan array binding signal (z-score),Gal(a1-3)Gal(b1-3)GlcNAc,-0.316
same,glycan array binding signal (z-score),[4],-0.359
same,glycan array binding signal (z-score),[5],-0.338
same,glycan array binding signal (z-score),[6],-0.367
same,glycan array binding signal (z-score),[7],-0.391
same,glycan array binding signal (z-score),[8],-0.239
same,glycan array binding signal (z-score),Gal(a1-3)Gal(b1-4)Glc,-0.336
same,glycan array binding signal (z-score),Gal(a1-3)Gal(b1-4)GlcNAc,-0.091
same,glycan array binding signal (z-score),[9],-0.324
same,glycan array binding signal (z-score),[10],-0.367
same,glycan array binding signal (z-score),[11],-0.361
same,glycan array binding signal (z-score),[12],-0.38
same,glycan array binding signal (z-score),[13],-0.246
same,glycan array binding signal (z-score),[14],-0.303
same,glycan array binding signal (z-score),Gal(a1-3)GalNAc,-0.227
same,glycan array binding signal (z-score),[15],0.85
same,glycan array binding signal (z-score),[16],-0.234
same,glycan array binding signal (z-score),Gal(a1-4)Gal(b1-4)Glc,-0.363
same,glycan array binding signal (z-score),Gal(a1-4)Gal(b1-4)GlcNAc,-0.159
same,glycan array binding signal (z-score),[17],-0.271
same,glycan array binding signal (z-score),[18],-0.309
same,glycan array binding signal (z-score),Gal(a1-4)GlcNAc,-0.328
same,glycan array binding signal (z-score),Gal(a1-6)Glc,-0.223
same,glycan array binding signal (z-score),Gal(b1-2)Gal,-0.335
same,glycan array binding signal (z-score),Gal(b1-3)Gal,-0.349
same,glycan array binding signal (z-score),Gal(b1-3)Gal(b1-4)GlcNAc,-0.34
same,glycan array binding signal (z-score),Gal(b1-3)GalNAc,-0.332
same,glycan array binding signal (z-score),[19],-0.353
same,glycan array binding signal (z-score),[20],-0.234
same,glycan array binding signal (z-score),Gal(b1-3)GalNAc(b1-3)Gal,-0.327
same,glycan array binding signal (z-score),[21],-0.362
same,glycan array binding signal (z-score),[22],-0.307
same,glycan array binding signal (z-score),[23],-0.405
same,glycan array binding signal (z-score),Gal(b1-3)GlcNAc,-0.324
same,glycan array binding signal (z-score),[24],-0.118
same,glycan array binding signal (z-score),[25],-0.372
same,glycan array binding signal (z-score),Gal(b1-3)GlcNAc(b1-2)Man,-0.284
same,glycan array binding signal (z-score),[26],-0.289

# Reference: the supplement of paper PMC8728848
